Assay results published in the supplement of paper PMC8728848.
This is one part of the list.

Experiments:
Assay in all cases: glycan array binding signal (z-score within array); higher = stronger binding
Conditions in all cases: glycan notation: IUPAC condensed, linker removed
Man(b1-4)GlcNAc = target: Man(b1-4)GlcNAc
Procedure, shortened: (§1)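 Glycan array data were curated from 3228 arrays in the Consortium for Functional Glycomics database and kept only where the protein sequence was available. Glycan names were converted to IUPAC-condensed notation, and columns mapping to the same glycan were averaged. The binding signal is a within-array Z-score, averaged across arrays of the same protein sequence at different concentrations or buffers and across linkers. Negative Z-scores can be read as non-binding.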

MurNAc(b1-4)GlcNAc = target: MurNAc(b1-4)GlcNAc
Procedure, shortened: as §1

Neu5Ac(a2-3)Gal = target: Neu5Ac(a2-3)Gal
Procedure, shortened: as §1

[1] = target: Neu5Ac(a2-3)Gal(b1-3)GalNAc
Procedure, shortened: as §1

[2] = target: Neu5Ac(a2-3)Gal(b1-3)GalNAc(b1-3)Gal(a1-4)Gal(b1-4)Glc
Procedure, shortened: as §1

[3] = target: Neu5Ac(a2-3)Gal(b1-3)GalNAc(b1-4)Gal(b1-4)Glc
Procedure, shortened: as §1

[4] = target: Neu5Ac(a2-3)Gal(b1-3)GalNAc(b1-4)[Neu5Ac(a2-3)]Gal(b1-4)Glc
Procedure, shortened: as §1

[5] = target: Neu5Ac(a2-3)Gal(b1-3)GalNAc(b1-4)[Neu5Ac(a2-8)Neu5Ac(a2-3)]Gal(b1-4)Glc
Procedure, shortened: as §1

[6] = target: Neu5Ac(a2-3)Gal(b1-3)GalNAc6S
Procedure, shortened: as §1

[7] = target: Neu5Ac(a2-3)Gal(b1-3)GlcNAc
Procedure, shortened: as §1

[8] = target: Neu5Ac(a2-3)Gal(b1-3)GlcNAc(b1-2)Man
Procedure, shortened: as §1

[9] = target: Neu5Ac(a2-3)Gal(b1-3)GlcNAc(b1-2)Man(a1-3)[GlcNAc(b1-4)][Neu5Ac(a2-3)Gal(b1-3)GlcNAc(b1-2)Man(a1-6)]Man(b1-4)GlcNAc(b1-4)GlcNAc
Procedure, shortened: as §1

[10] = target: Neu5Ac(a2-3)Gal(b1-3)GlcNAc(b1-2)Man(a1-3)[Neu5Ac(a2-3)Gal(b1-3)GlcNAc(b1-2)Man(a1-6)]Man(b1-4)GlcNAc(b1-4)GlcNAc
Procedure, shortened: as §1

[11] = target: Neu5Ac(a2-3)Gal(b1-3)GlcNAc(b1-2)[Neu5Ac(a2-3)Gal(b1-3)GlcNAc(b1-4)]Man(a1-6)[Neu5Ac(a2-3)Gal(b1-3)GlcNAc(b1-2)Man(a1-3)]Man(b1-4)GlcNAc(b1-4)GlcNAc
Procedure, shortened: as §1

[12] = target: Neu5Ac(a2-3)Gal(b1-3)GlcNAc(b1-3)Gal(b1-3)GlcNAc
Procedure, shortened: as §1

[13] = target: Neu5Ac(a2-3)Gal(b1-3)GlcNAc(b1-3)Gal(b1-4)GlcNAc
Procedure, shortened: as §1

[14] = target: Neu5Ac(a2-3)Gal(b1-3)GlcNAc(b1-3)GalNAc
Procedure, shortened: as §1

[15] = target: Neu5Ac(a2-3)Gal(b1-3)GlcNAc(b1-6)GalNAc
Procedure, shortened: as §1

[16] = target: Neu5Ac(a2-3)Gal(b1-3)GlcNAc6S
Procedure, shortened: as §1

[17] = target: Neu5Ac(a2-3)Gal(b1-3)[Fuc(a1-4)]GlcNAc
Procedure, shortened: as §1

[18] = target: Neu5Ac(a2-3)Gal(b1-3)[Fuc(a1-4)]GlcNAc(b1-3)Gal(b1-3)[Fuc(a1-4)]GlcNAc
Procedure, shortened: as §1

[19] = target: Neu5Ac(a2-3)Gal(b1-3)[Fuc(a1-4)]GlcNAc(b1-3)Gal(b1-4)[Fuc(a1-3)]GlcNAc
Procedure, shortened: as §1

[20] = target: Neu5Ac(a2-3)Gal(b1-3)[GlcNAc(b1-6)]GalNAc
Procedure, shortened: as §1

[21] = target: Neu5Ac(a2-3)Gal(b1-3)[Neu5Ac(a2-6)]GalNAc
Procedure, shortened: as §1

[22] = target: Neu5Ac(a2-3)Gal(b1-3)[Neu5Ac(a2-6)]GlcNAc(b1-3)[Fuc(a1-3)[Gal(b1-4)]GlcNAc(b1-6)]Gal(b1-4)Glc
Procedure, shortened: as §1

[23] = target: Neu5Ac(a2-3)Gal(b1-3)]Neu5Ac(a2-3)Gal(b1-4)]GlcNAc
Procedure, shortened: as §1

Neu5Ac(a2-3)Gal(b1-4)Glc = target: Neu5Ac(a2-3)Gal(b1-4)Glc
Procedure, shortened: as §1

[24] = target: Neu5Ac(a2-3)Gal(b1-4)GlcNAc
Procedure, shortened: as §1

[25] = target: Neu5Ac(a2-3)Gal(b1-4)GlcNAc(b1-2)Man
Procedure, shortened: as §1

[26] = target: Neu5Ac(a2-3)Gal(b1-4)GlcNAc(b1-2)Man(a1-3)[GlcNAc(b1-4)][Neu5Ac(a2-3)Gal(b1-4)GlcNAc(b1-2)Man(a1-6)]Man(b1-4)GlcNAc(b1-4)GlcNAc
Procedure, shortened: as §1

[27] = target: Neu5Ac(a2-3)Gal(b1-4)GlcNAc(b1-2)Man(a1-3)[Neu5Ac(a2-3)Gal(b1-4)GlcNAc(b1-2)Man(a1-6)]Man(b1-4)GlcNAc(b1-4)GlcNAc
Procedure, shortened: as §1

[28] = target: Neu5Ac(a2-3)Gal(b1-4)GlcNAc(b1-2)Man(a1-3)[Neu5Ac(a2-3)Gal(b1-4)GlcNAc(b1-2)Man(a1-6)]Man(b1-4)GlcNAc(b1-4)[Fuc(a1-6)]GlcNAc
Procedure, shortened: as §1

[29] = target: Neu5Ac(a2-3)Gal(b1-4)GlcNAc(b1-2)Man(a1-3)[Neu5Ac(a2-6)Gal(b1-4)GlcNAc(b1-2)Man(a1-6)]Man(b1-4)GlcNAc(b1-4)GlcNAc
Procedure, shortened: as §1

[30] = target: Neu5Ac(a2-3)Gal(b1-4)GlcNAc(b1-2)[Neu5Ac(a2-3)Gal(b1-4)GlcNAc(b1-4)]Man(a1-3)[GlcNAc(b1-4)][Neu5Ac(a2-3)Gal(b1-4)GlcNAc(b1-2)[Neu5Ac(a2-3)Gal(b1-4)GlcNAc(b1-6)]Man(a1-6)]Man(b1-4)GlcNAc(b1-4)GlcNAc
Procedure, shortened: as §1

[31] = target: Neu5Ac(a2-3)Gal(b1-4)GlcNAc(b1-2)[Neu5Ac(a2-3)Gal(b1-4)GlcNAc(b1-4)]Man(a1-3)[GlcNAc(b1-4)][Neu5Ac(a2-3)Gal(b1-4)GlcNAc(b1-4)Man(a1-6)]Man(b1-4)GlcNAc(b1-4)GlcNAc
Procedure, shortened: as §1

[32] = target: Neu5Ac(a2-3)Gal(b1-4)GlcNAc(b1-2)[Neu5Ac(a2-3)Gal(b1-4)GlcNAc(b1-6)]Man(a1-6)[Neu5Ac(a2-3)Gal(b1-4)GlcNAc(b1-2)Man(a1-3)][GlcNAc(b1-4)]Man(b1-4)GlcNAc(b1-4)GlcNAc
Procedure, shortened: as §1

[33] = target: Neu5Ac(a2-3)Gal(b1-4)GlcNAc(b1-3)Gal
Procedure, shortened: as §1

[34] = target: Neu5Ac(a2-3)Gal(b1-4)GlcNAc(b1-3)Gal(b1-3)GlcNAc
Procedure, shortened: as §1

[35] = target: Neu5Ac(a2-3)Gal(b1-4)GlcNAc(b1-3)Gal(b1-4)GlcNAc
Procedure, shortened: as §1

[36] = target: Neu5Ac(a2-3)Gal(b1-4)GlcNAc(b1-3)Gal(b1-4)GlcNAc(b1-2)Man(a1-3)[Neu5Ac(a2-3)Gal(b1-4)GlcNAc(b1-3)Gal(b1-4)GlcNAc(b1-2)Man(a1-6)]Man(b1-4)GlcNAc(b1-4)GlcNAc
Procedure, shortened: as §1

[37] = target: Neu5Ac(a2-3)Gal(b1-4)GlcNAc(b1-3)Gal(b1-4)GlcNAc(b1-3)Gal(b1-4)GlcNAc
Procedure, shortened: as §1

[38] = target: Neu5Ac(a2-3)Gal(b1-4)GlcNAc(b1-3)Gal(b1-4)GlcNAc(b1-3)Gal(b1-4)GlcNAc(b1-2)Man(a1-3)[Neu5Ac(a2-3)Gal(b1-4)GlcNAc(b1-3)Gal(b1-4)GlcNAc(b1-3)Gal(b1-4)GlcNAc(b1-2)Man(a1-6)]GalNAc
Procedure, shortened: as §1

[39] = target: Neu5Ac(a2-3)Gal(b1-4)GlcNAc(b1-3)Gal(b1-4)GlcNAc(b1-3)GalNAc
Procedure, shortened: as §1

[40] = target: Neu5Ac(a2-3)Gal(b1-4)GlcNAc(b1-3)Gal(b1-4)GlcNAc(b1-3)[Neu5Ac(a2-3)Gal(b1-4)GlcNAc(b1-3)Gal(b1-4)GlcNAc(b1-6)]GalNAc
Procedure, shortened: as §1

[41] = target: Neu5Ac(a2-3)Gal(b1-4)GlcNAc(b1-3)Gal(b1-4)GlcNAc(b1-6)[Gal(b1-3)]GalNAc
Procedure, shortened: as §1

B1: Banana lectin (Musa acuminata) (protein)
chain: MNGAIKVGAWGGNGGSAFDMGPAYRIISVKIFSGDVVDGVDVTFTYYGKTETRHYGGSGGTPHEIVLQEGEYLVGMAGEVANYHGAVVLGKLGFSTNKKAYGPFGNTGGTPFSLPIAAGKISGFFGRGGKFLDAIGVYLEPLEHHHHHH
How did the “glycan array binding signal (z-score)” value (Man(b1-4)GlcNAc) turn out when B1 was run?
The value was -0.607.

And the “glycan array binding signal (z-score)” value (MurNAc(b1-4)GlcNAc)?
Its value is -0.203.

And the “glycan array binding signal (z-score)” value (Neu5Ac(a2-3)Gal)?
The value was -0.214.

What about the “glycan array binding signal (z-score)” value [1] of the same binder?
The value was 0.034.

What about the “glycan array binding signal (z-score)” value [2] of the same binder?
Its value is -0.222.

And the “glycan array binding signal (z-score)” value [3]?
Its value is -0.209.

And the “glycan array binding signal (z-score)” value [4]?
Its value is -0.185.

What about the “glycan array binding signal (z-score)” value [5] of the same binder?
The value was -0.236.

What about the “glycan array binding signal (z-score)” value [6] of the same binder?
Its value is -0.237.

And the “glycan array binding signal (z-score)” value [7]?
The value was -0.202.

What about the “glycan array binding signal (z-score)” value [8] of the same binder?
The value was -0.22.

And the “glycan array binding signal (z-score)” value [9]?
The value was -0.157.

And the “glycan array binding signal (z-score)” value [10]?
The value was -0.222.

And the “glycan array binding signal (z-score)” value [11]?
Its value is 0.118.

And the “glycan array binding signal (z-score)” value [12]?
Its value is -0.202.

And the “glycan array binding signal (z-score)” value [13]?
The value was -0.189.

What about the “glycan array binding signal (z-score)” value [14] of the same binder?
The value was -0.218.

What about the “glycan array binding signal (z-score)” value [15] of the same binder?
The value was -0.288.

And the “glycan array binding signal (z-score)” value [16]?
The value was -0.222.

And the “glycan array binding signal (z-score)” value [17]?
Its value is -0.213.

And the “glycan array binding signal (z-score)” value [18]?
The value was -0.179.

What about the “glycan array binding signal (z-score)” value [19] of the same binder?
Its value is -0.033.

What about the “glycan array binding signal (z-score)” value [20] of the same binder?
Its value is -0.214.

And the “glycan array binding signal (z-score)” value [21]?
The value was -0.235.

And the “glycan array binding signal (z-score)” value [22]?
Its value is -0.188.

What about the “glycan array binding signal (z-score)” value [23] of the same binder?
The value was -0.223.

What about the “glycan array binding signal (z-score)” value (Neu5Ac(a2-3)Gal(b1-4)Glc) of the same binder?
Its value is -0.193.

And the “glycan array binding signal (z-score)” value [24]?
The value was -0.197.

What about the “glycan array binding signal (z-score)” value [25] of the same binder?
The value was -0.182.

What about the “glycan array binding signal (z-score)” value [26] of the same binder?
The value was -0.197.

What about the “glycan array binding signal (z-score)” value [27] of the same binder?
The value was -0.144.

What about the “glycan array binding signal (z-score)” value [28] of the same binder?
The value was -0.603.

What about the “glycan array binding signal (z-score)” value [29] of the same binder?
Its value is -0.163.

What about the “glycan array binding signal (z-score)” value [30] of the same binder?
Its value is -0.216.

And the “glycan array binding signal (z-score)” value [31]?
Its value is -0.225.

And the “glycan array binding signal (z-score)” value [32]?
The value was -0.234.

What about the “glycan array binding signal (z-score)” value [33] of the same binder?
The value was -0.215.

What about the “glycan array binding signal (z-score)” value [34] of the same binder?
The value was -0.247.

What about the “glycan array binding signal (z-score)” value [35] of the same binder?
The value was -0.228.

And the “glycan array binding signal (z-score)” value [36]?
The value was -0.167.

And the “glycan array binding signal (z-score)” value [37]?
Its value is -0.198.

And the “glycan array binding signal (z-score)” value [38]?
Its value is -0.09.

What about the “glycan array binding signal (z-score)” value [39] of the same binder?
The value was -0.217.

And the “glycan array binding signal (z-score)” value [40]?
The value was -0.196.

What about the “glycan array binding signal (z-score)” value [41] of the same binder?
The value was -0.208.
